Each structure is given as a SMILES string. The campaign covered roughly 150,000 compounds. About 540 (0.36%) showed an effect of 50% or more. The list shows a part of the results.

The test system of this experiment is Plasmodium falciparum. As to the kind of experiment: Primary screen in NF54 nanoGlo assay, in single point, at 2uM, 72h; a lower Z score goes with more inhibition. The following applies: timepoint 72 hour. Type of experiment: functional, Erythrocyte.
For the molecule `CN1C[C@@H]2C[C@H]1C(=O)NC[C@H]1O[C@H](CCOc3cc(-c4ccccc4)ccc3C(=O)N2)CC[C@@H]1O`, the % Inhibition – broadly, the drop in the measured response relative to a control, in per cent – is recorded as -4% and the Z score came to 0.48.

In the case of `Cc1nc2c([nH]1)CN(Cc1ccc(Cl)o1)CC2`, the “% Inhibition” value stood at 26% and the Z score was -2.54.

Consider `CCc1nccn1CCC(=O)N1CCC[C@H](C(=O)c2ccc(Cl)cc2)C1`, for which the “% Inhibition” value is -12% and the Z score was found to be 1.75.

As for `Cn1nnc2c(=O)n(CC(=O)NCc3ccccc3Cl)cnc21`, the “% Inhibition” value came out at 5% and the Z score is on record as -0.71.

For `CN1CCC(NC(=O)c2cc[nH]n2)C1c1ccc(Cl)cc1` (centres undefined), the “% Inhibition” value is reported as 0% and the Z score is given as 0.02.

With `COc1ccc(-c2nccn3cc(C(=O)N4CCCC4)nc23)cc1`, the “% Inhibition” value stood at 26% and the Z score is -2.95.

For `Cc1oc2ncn(CCN3CCCC3)c(=O)c2c1C(=O)Nc1ccc(C#N)cc1`, the “% Inhibition” value is reported as 46% and the Z score is -6.58.

As to `Cc1ccnc(NC(=O)c2ccc(CNC(=O)C3CCCC3)cc2)c1`, the “% Inhibition” value is listed as 1% and the Z score is on record as -0.11.

In the case of `CC[C@]1(c2ccc(C)cc2)NC(=O)N(CC(=O)c2cc(C)n(Cc3ccc4c(c3)OCO4)c2C)C1=O`, the “% Inhibition” value is -2% and the Z score was determined as 0.31.

As for `CN(CC(=O)N1CCC[C@H](Cn2ccnc2)C1)Cc1cccnc1`, the “% Inhibition” value was found to be 1% and the Z score is on record as -0.18.

`CNc1nc(C)c(-c2cccc3ccnn23)s1`: the “% Inhibition” value is on record as -3% and the Z score is 0.36.

As to `CCc1cccc2c(C3CCN(C(=O)[C@H]4CCN(C)C(=O)C4)CC3)c[nH]c12`, the “% Inhibition” value is listed as -13% and the Z score is recorded as 1.83.

Consider `Cn1ncc(C2CCC2)c1C(=O)NC[C@@H](C(=O)O)c1ccc(F)cc1`, for which the “% Inhibition” value is recorded as 13% and the Z score was -1.61.

Turning to `Cc1noc(C)c1CN(C)C(=O)c1ccc2[nH]c3c(c2c1)CCCC3`, the “% Inhibition” value is on record as -2% and the Z score was found to be 0.34.

In the case of `O=C(c1cn2c3c(cc(Br)cc3c1=O)CC2)N1CCCCC1`, the “% Inhibition” value is 2% and the Z score is reported as -0.23.

Consider `CCN(CC)Cc1cnc2c(C(=O)N3CCC[C@H]3c3nonc3C)cnn2c1`, for which the “% Inhibition” value is reported as -5% and the Z score turned out to be 0.57.

In the case of `CN(Cc1ccccc1)c1ncccc1CNc1cc(C#N)ccn1`, the “% Inhibition” value was -8% and the Z score was 1.17.

As to `Cc1cnc([C@H](C)Nc2cnn(-c3ccccc3Br)c2)o1`, the “% Inhibition” value is given as 5% and the Z score is given as -0.7.

For `C[C@H](O)CN(C)C(=O)NCCc1cc(Cl)ccc1Br`, the “% Inhibition” value is listed as -2% and the Z score worked out at 0.23.

Regarding `c1ccc(-c2nnc3n2C2(CCCC2)Cc2ccccc2-3)cc1`, the “% Inhibition” value is -9% and the Z score is reported as 1.24.

Consider `Cc1nnc(N(C)C[C@H]2CCN(C(C)C)C2)s1`, for which the “% Inhibition” value is -16% and the Z score turned out to be 2.04.

Take `Cc1c(NC(=O)N2CCO[C@]3(CCOC3)C2)cccc1C(F)(F)F`: the “% Inhibition” value is 13% and the Z score is reported as -1.46.

With `O=C(CN1C(=O)NC2(CCN(Cc3ccccc3)CC2)C1=O)Nc1ccc2c(c1)OCCO2`, the “% Inhibition” value is reported as -7% and the Z score worked out at 0.78.

On to `COc1ccc(-n2cnc3cc(Nc4nnc(-c5ccc(C)cc5)c5ccccc45)ccc32)cc1`, for which the “% Inhibition” value is on record as 8% and the Z score is -1.02.

On to `COc1ccccc1C(O)Cn1cc(C(=O)NC2CCc3ccccc32)nn1` (centres undefined), for which the “% Inhibition” value was -10% and the Z score was 1.85.

In the case of `O=C(NCc1ccc2c(c1)OCO2)[C@@H]1CCCCn2nnnc21`, the “% Inhibition” value is -10% and the Z score is listed as 1.81.

With `COC(=O)[C@H](NCC(=O)Nc1cccc(N2CCCC2=O)c1)c1ccc(OC)cc1`, the “% Inhibition” value is on record as -13% and the Z score was 1.2.

On to `Brc1ccc(-c2noc(-c3cccnc3)n2)o1`, for which the “% Inhibition” value is -5% and the Z score is given as 0.73.

Consider `CCN(CC)Cc1cnc2c(C(=O)N(C)Cc3cc[nH]n3)cnn2c1`, for which the “% Inhibition” value is -9% and the Z score came to 1.25.

Turning to `COc1ccccc1/C=C/CN1CCC(N2CCC(C(=O)N3CCCC3)CC2)CC1`, the “% Inhibition” value was -16% and the Z score stood at 1.38.

Consider `CC1CN(C)CCC1N(C)C(=O)c1snc(O)c1Cl` (centres undefined), for which the “% Inhibition” value is reported as -5% and the Z score is listed as 0.83.

With `CCn1ncnc1[C@H](C)NC(=O)c1cnnn1-c1ccccc1`, the “% Inhibition” value stood at 6% and the Z score is -1.08.

With `CCCc1cc(=O)n(CC(=O)N2CCN(c3ccc(F)cc3)CC2)cn1`, the “% Inhibition” value is recorded as -9% and the Z score turned out to be 1.47.

As for `CC(C)CNC(=O)C(=O)NCc1ccc(-c2ccoc2)o1`, the “% Inhibition” value was determined as 1% and the Z score is reported as -0.07.

With `CN(Cc1csc(-c2ccccc2)n1)C(=O)c1ccccc1-n1cncn1`, the “% Inhibition” value is listed as -10% and the Z score turned out to be 1.33.

For the molecule `CN(C[C@H]1COc2ccccc2O1)C(=O)Cn1c(CS(C)(=O)=O)nc2ccccc21`, the “% Inhibition” value is reported as 5% and the Z score is -0.75.

On to `Cc1nc([C@H]2CCOC2)cc(N2CCN(c3cnccn3)CC2)n1`, for which the “% Inhibition” value is reported as 2% and the Z score is given as -0.31.

`Cc1nn(CC(C)C)c(Cl)c1CN1CCC2(CC1)NC(=O)NC2=O`: the “% Inhibition” value worked out at 5% and the Z score was -0.58.

For `CCC1CCCN(C(=O)C2CN(C)CCO2)CC1` (centres undefined), the “% Inhibition” value is given as -7% and the Z score is recorded as 0.63.

With `CC(O)CC1CCCN1C(=O)c1ccc2c(=O)[nH][nH]c2c1` (centres undefined), the “% Inhibition” value is -16% and the Z score turned out to be 2.08.

Take `COCC(=O)N[C@@H]1CN(C(=O)CCCCc2ccccc2)C[C@H]1c1nccn1C`: the “% Inhibition” value is given as -2% and the Z score is 0.31.

With `Cc1c[nH]c([C@H](C)NC(=O)CCc2cnccn2)n1`, the “% Inhibition” value is recorded as -10% and the Z score is reported as 1.08.

(Values after ChEMBL document CHEMBL4888484, “Replenishing the malaria drug discovery pipeline: Screening and hit evaluation of the MMV Hit Generation Library 1 (HGL1) against asexual blood stage Plasmodium falciparum ,using a nano luciferase reporter read-out” (2022).)
